This note sets out measurements from ChEMBL document CHEMBL4888484, “Replenishing the malaria drug discovery pipeline: Screening and hit evaluation of the MMV Hit Generation Library 1 (HGL1) against asexual blood stage Plasmodium falciparum ,using a nano luciferase reporter read-out” (2022).

Structures are written as SMILES. About 540 (0.36%) of roughly 150,000 compounds showed an effect of 50% or more. The list shows a part of the results.

The test system of the experiment is Plasmodium falciparum. Put plainly: Primary screen in NF54 nanoGlo assay, in single point, at 2uM, 72h; a lower Z score goes with more inhibition. As to conditions: timepoint 72 hour. The class given is functional, Erythrocyte.
For orientation: % Inhibition means the relative decrease from the control value, in per cent. With `COc1cc(C)c2[nH]c3c(c(=O)c2c1)CN(CC(=O)Nc1cccc(C)c1)CC3`, the “% Inhibition” value is given as 7% and the Z score is listed as -1.07.
The corresponding values for `O=C(Cc1cc(-c2ccccc2)on1)N1CCc2ccccc2C1` are -8% and 1.03.
The like results for `Cc1cc(C)cc(C(=O)N(CCC(=O)N2CCNCC2)Cc2ccc(F)cc2)c1` were, in that order, -9% and 1.24.
The corresponding values for `CC1(C2CCCCC2)NC(=O)N(CC(O)COc2ccccc2)C1=O` (centres undefined) are -7% and 0.62.
As for `CC1CCCC(NC(=O)C2(C)Cn3c(nc4ccccc43)C(=O)N2Cc2cccc(Cl)c2)C1C` (centres undefined), the “% Inhibition” value is reported as 11% and the Z score was -1.04.
The corresponding values for `CC(C)(C)CNC(=O)C(C)(C)NC(=O)Nc1ccc(F)cc1F` are -16% and 1.55.
The corresponding values for `Brc1cc2c(cc1CN1CCN(c3ncccn3)CC1)OCCO2` are -8% and 1.01.
The like results for `C[C@H]1CCCN(C(=O)c2nscc2Br)CC1` were, in that order, -13% and 1.31.
Turning to `O=C(CC1CC(c2ccccc2)C1)NCc1nc(C(F)(F)F)n[nH]1` (centres undefined), the “% Inhibition” value is recorded as -10% and the Z score worked out at 1.03.
The like results for `COCc1nc(COc2cccc(F)c2)nn1CC(C)(C)O` were, in that order, -8% and 1.04.
`CC[C@H](NCCn1ccnc1)c1nccs1`: the “% Inhibition” value is given as -10% and the Z score stood at 1.32.
The corresponding values for `Cc1cc(C(=O)N(C)C[C@H]2CC(=O)N(C(C)(C)C)C2)cc(C)n1` are -4% and 0.55.
The like results for `CN(C)c1cc(N(C)C[C@H]2CC(=O)N(C(C)(C)C)C2)ncn1` were, in that order, -9% and 1.63.
The like results for `COc1ccc(S(=O)(=O)N(Cc2cc(OC)c(OCCC3CCCN3C)c(OC)c2)[C@H]2CCCCNC2=O)cc1` (some centres undefined) were, in that order, -9% and 1.15.
As for `Cc1cnc(C2CCN(C(=O)c3cc4ccccc4s3)CC2)s1`, the “% Inhibition” value turned out to be 26% and the Z score was -2.96.
The corresponding values for `CN(C[C@H]1COc2ccccc2O1)C(=O)c1cc2c([nH]c1=O)CCCC2=O` are -5% and 1.02.
The like results for `CC(C)c1nsc(NCC2(n3cccn3)CC2)n1` were, in that order, -11% and 1.27.
The corresponding values for `COc1ccc(-c2noc3nc(C4CC4)cc(C(=O)N[C@@H](C)CN4CCOCC4)c23)cc1` are 9% and -1.43.
Regarding `CC1CN(S(=O)(=O)N2CCOC(C(C)C)C2)CC(C)O1` (centres undefined), the “% Inhibition” value is -9% and the Z score was determined as 1.35.
The corresponding values for `O=C(Cc1c(Cl)cccc1Cl)N1CCCCCCC1` are -14% and 1.45.
The like results for `O=C(COc1ccc(Cc2ncc(C(F)(F)F)cc2Cl)cc1)c1ccc(F)cc1` were, in that order, -16% and 2.3.
For the compound `CCCCN(CC(=O)N(Cc1ccco1)C[C@H]1CCCO1)C(=O)C1CCCC1`, the “% Inhibition” value is -2% and the Z score came to 0.42.
The like results for `Cc1cc(NC(=O)Cn2nc(-n3ccc4ccccc43)ccc2=O)on1` were, in that order, -4% and 0.88.
`Cc1occc1C(=O)N1CC[C@H](N(CCN2CCCCC2)C(=O)N(C)C)C1`: the “% Inhibition” value is recorded as -6% and the Z score is 0.77.
The like results for `CC(C)(O)C1CN(C(=O)c2nn(-c3cccc(F)c3F)c3c2CCC3)C1` were, in that order, 0% and 0.06.
Take `Cc1nc(C2(C)CCN(S(=O)(=O)c3ccc(Cl)cc3C)CC2)no1`: the “% Inhibition” value stood at 0% and the Z score was -0.03.
The like results for `O=C(Cc1nnc(-c2ccc3ncccc3c2)o1)NCc1ccc(Cl)cc1` were, in that order, -10% and 1.04.
The corresponding values for `COCC1(NC(=O)CN2CCCCCC2)CCCC1` are -6% and 1.13.
The corresponding values for `COC(=O)C(C)CC(=O)NC1CCCCC1C(F)(F)F` (centres undefined) are -4% and 0.49.
As for `CC(=O)Oc1c(-c2ccc(NC(=O)C(C)C)cc2)c(C2CC2)nn1-c1ccc(C)cc1`, the “% Inhibition” value is listed as -1% and the Z score was 0.18.
The corresponding values for `CN(C)CCN1C(=O)N[C@@](CCc2ccccc2)(C2CCN(C(=O)c3ccccc3F)CC2)C1=O` are 0% and -0.02.
With `COc1ccc2[nH]c3c(=O)n(-c4ccccc4OC)c(O)nc3c2c1`, the “% Inhibition” value was 4% and the Z score is given as -0.71.
The like results for `CCn1c(-c2nccn2-c2ccc3[nH]nnc3c2)nc2ccccc21` were, in that order, -7% and 0.98.
The corresponding values for `C[C@@H](CNc1ncc(F)c(-c2ccsc2)n1)S(N)(=O)=O` are 25% and -3.15.
The like results for `O=C(NCc1ccnc(N2CCCC2=O)c1)c1ccco1` were, in that order, -3% and 0.47.
Regarding `O=C(Cc1c(F)cccc1Cl)Nc1nc(-c2ccc3c(c2)OCO3)cs1`, the “% Inhibition” value is -1% and the Z score came to 0.07.
As for `COCCCc1nc(-c2ccc3c(c2)CCCC(=O)N3)cs1`, the “% Inhibition” value is listed as 10% and the Z score is listed as -1.27.
In the case of `O=C(Nc1nc2ccccn2n1)[C@H]1C2CCC(CC2)[C@@H]1C(F)(F)F`, the “% Inhibition” value was -11% and the Z score was determined as 1.66.
With `Cc1nc(CCN2CCCCCC2=O)n(-c2ccc(Cl)cc2)n1`, the “% Inhibition” value was -13% and the Z score is on record as 1.68.
The corresponding values for `CCOC(=O)N1CCN(C(=O)Cc2c(C)nn(-c3nc(C)c(C)s3)c2O)CC1` are 4% and -0.52.
The like results for `Oc1nc(-c2cccnc2)sc1-c1ccccc1` were, in that order, -2% and 0.32.
For `Cc1c(NC(=O)NC23CC2COC3(C)C)cccc1-c1ncco1` (centres undefined), the “% Inhibition” value is 13% and the Z score was -1.57.
